In PMC10470536:
These are yes or no findings as the source states them, for the method shown. Binding seen in cells or lysates may run through a third protein. Some entries that bind do so weakly or less than the wild type. For part of these data: Tags and fused reporters may be left off the sequences shown. Blank lines part the entries; values can stand above or below the molecule they belong to.

Legend:
[1] = biological target: T1, RicA-3FL (FLAG-tagged RicA) (B. subtilis) (UniProt O31779); assay: co-IP; called pull-down by the paper: lysate of the 3x FLAG strain (no cross-linking, RNase and DNase added, 1% Triton X100; 20 mM HEPES pH 7.4, 0.2 M NaCl) on anti-FLAG magnetic beads, 30 min at room temperature, washed with PBS, eluted with FLAG peptide; Western blot with anti-Ric or anti-Rny antiserum; eluant about 18-fold concentrated against the load
T1 sequence: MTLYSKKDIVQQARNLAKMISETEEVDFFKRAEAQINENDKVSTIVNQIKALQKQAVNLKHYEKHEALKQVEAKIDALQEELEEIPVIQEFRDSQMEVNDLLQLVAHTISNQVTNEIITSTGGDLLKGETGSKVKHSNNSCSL

[2] = biological target: T2, RicF-3FL (FLAG-tagged RicF) (B. subtilis) (UniProt O34412); assay: as above
T2 sequence: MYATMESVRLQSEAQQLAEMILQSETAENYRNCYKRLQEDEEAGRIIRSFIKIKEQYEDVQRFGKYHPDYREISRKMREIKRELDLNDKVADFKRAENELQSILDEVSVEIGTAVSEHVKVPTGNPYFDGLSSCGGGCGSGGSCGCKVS

[3] = biological target: T3, RicT-3FL (3x FLAG-tagged RicT) (B. subtilis) (UniProt P37541); assay: as above
T3 sequence: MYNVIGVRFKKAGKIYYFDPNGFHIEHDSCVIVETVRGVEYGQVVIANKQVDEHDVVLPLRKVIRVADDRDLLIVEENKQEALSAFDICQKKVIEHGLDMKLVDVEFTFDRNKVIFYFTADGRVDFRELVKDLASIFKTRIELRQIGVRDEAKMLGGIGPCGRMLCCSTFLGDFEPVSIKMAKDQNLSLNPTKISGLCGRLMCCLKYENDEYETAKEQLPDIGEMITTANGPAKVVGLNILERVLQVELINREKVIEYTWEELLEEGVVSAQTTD

[4] = biological target: Rny-3FL (RNase Y with a C-terminal 3x FLAG epitope) (B. subtilis) (UniProt O31774); assay: as above
[5] = biological target: T3, RicT-3FL (3x FLAG-tagged RicT) (B. subtilis); assay: co-IP; anti-FLAG pull-down as a1 from RicT-3FL lysate treated beforehand with 15 mM EDTA (pH 7.5) and 10 mM potassium ferricyanide, 1 h on ice (oxidation and chelation to strip the Fe-S clusters); Western blot with anti-Rny and anti-Ric antisera
[6] = biological target: T4, Rny-3FL (RNase Y with a C-terminal 3x FLAG epitope) (B. subtilis), O31774; assay: co-IP; called pull-down by the paper: lysate of the 3x FLAG strain (no cross-linking, RNase and DNase added, 1% Triton X100; 20 mM HEPES pH 7.4, 0.2 M NaCl) on anti-FLAG magnetic beads, 30 min at room temperature, washed with PBS, eluted with FLAG peptide; Western blot with anti-Ric or anti-Rny antiserum; eluant about 18-fold concentrated against the load; conditions: remark: other sources report otherwise
T4 chain: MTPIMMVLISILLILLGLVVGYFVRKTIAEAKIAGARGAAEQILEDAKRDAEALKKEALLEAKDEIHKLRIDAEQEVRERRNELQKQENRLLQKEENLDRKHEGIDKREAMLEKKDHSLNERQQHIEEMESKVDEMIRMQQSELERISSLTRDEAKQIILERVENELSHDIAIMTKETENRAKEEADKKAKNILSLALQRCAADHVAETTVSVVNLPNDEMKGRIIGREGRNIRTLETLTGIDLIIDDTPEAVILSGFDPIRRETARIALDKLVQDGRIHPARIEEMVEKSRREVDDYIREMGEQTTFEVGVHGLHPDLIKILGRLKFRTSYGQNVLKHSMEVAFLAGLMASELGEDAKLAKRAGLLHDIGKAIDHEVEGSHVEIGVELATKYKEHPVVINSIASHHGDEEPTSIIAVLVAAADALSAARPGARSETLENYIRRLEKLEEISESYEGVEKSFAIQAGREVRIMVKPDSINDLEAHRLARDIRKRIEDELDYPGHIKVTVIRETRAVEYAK

[7] = biological target: T5, RicF-3FL (FLAG-tagged RicF) (B. subtilis), O34412; assay: as above; conditions: remark: other sources report otherwise
T5 chain: T2 sequence

B1: RicA (YmcA) (protein, UniProt O31779 1-143)
chain: T1 sequence
- binding [2]: binds
- binding [3]: binds
- binding [4]: no binding
- binding [5]: binds

B2: RicF (YlbF) (protein, UniProt O34412 1-149)
chain: T2 sequence
- binding [3]: binds
- binding [1]: binds
- binding [5]: binds

B3: RicF (YlbF), O34412 1-149 (protein)
chain: T2 sequence
- binding [6]: no binding

B5: RicT (YaaT) (protein, UniProt P37541 1-275)
chain: T3 sequence
- binding [2]: binds
- binding [1]: binds

More lines, now with the values ahead:

- binding [1]: no binding
Molecule: Rny (RNase Y) (from UniProt O31774 1-520) (enzyme)

- binding [7]: no binding
B4: Rny (RNase Y), O31774 1-520 (enzyme)
chain: T4 chain
